Hit rate of the full screen: of about 310,000 compounds, about 2,200 (0.71%) showed an effect of 50% or more. Effects have a minus sign here. The list shows a part of the results.
Target: human ether-à-go-go-related gene (hERG) potassium channel (human, UniProt Q12809)
Assay: primary screen, population patch clamp on CHO cells stably expressing hERG

Sequence of human ether-à-go-go-related gene (hERG) potassium channel (Q12809 whole entry, looked up): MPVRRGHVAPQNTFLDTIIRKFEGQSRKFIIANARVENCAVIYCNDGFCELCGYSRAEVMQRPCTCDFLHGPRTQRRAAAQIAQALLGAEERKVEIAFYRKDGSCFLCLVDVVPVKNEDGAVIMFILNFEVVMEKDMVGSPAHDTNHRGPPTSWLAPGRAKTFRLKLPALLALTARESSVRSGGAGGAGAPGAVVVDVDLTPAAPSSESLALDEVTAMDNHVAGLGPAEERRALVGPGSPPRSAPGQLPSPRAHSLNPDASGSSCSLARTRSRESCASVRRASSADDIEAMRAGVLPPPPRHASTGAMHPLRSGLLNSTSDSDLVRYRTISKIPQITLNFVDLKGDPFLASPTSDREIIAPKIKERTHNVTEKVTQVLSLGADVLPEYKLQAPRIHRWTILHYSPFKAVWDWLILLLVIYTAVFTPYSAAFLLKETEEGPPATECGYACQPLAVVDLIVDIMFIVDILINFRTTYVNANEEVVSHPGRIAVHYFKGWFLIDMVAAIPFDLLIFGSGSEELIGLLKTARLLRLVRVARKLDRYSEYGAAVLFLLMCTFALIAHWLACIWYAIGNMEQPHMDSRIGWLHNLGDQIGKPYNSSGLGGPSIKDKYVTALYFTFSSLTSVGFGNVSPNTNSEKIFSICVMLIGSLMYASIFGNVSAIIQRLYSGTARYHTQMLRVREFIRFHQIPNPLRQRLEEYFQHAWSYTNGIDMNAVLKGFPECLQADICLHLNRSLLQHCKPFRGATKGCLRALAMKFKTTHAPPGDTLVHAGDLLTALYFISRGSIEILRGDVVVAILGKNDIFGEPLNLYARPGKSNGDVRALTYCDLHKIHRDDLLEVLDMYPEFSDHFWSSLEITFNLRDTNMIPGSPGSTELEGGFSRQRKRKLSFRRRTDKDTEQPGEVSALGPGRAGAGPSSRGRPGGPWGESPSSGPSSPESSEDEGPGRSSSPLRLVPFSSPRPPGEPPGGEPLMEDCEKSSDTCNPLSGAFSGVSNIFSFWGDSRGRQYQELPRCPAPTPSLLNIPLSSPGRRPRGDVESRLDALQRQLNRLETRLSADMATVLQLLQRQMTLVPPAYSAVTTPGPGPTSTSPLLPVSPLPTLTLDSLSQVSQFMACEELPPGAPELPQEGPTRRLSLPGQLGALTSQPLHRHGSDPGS

Row | SMILES | hERG current change (%, negative = inhibition) at 1uM [%]
1 | CN(CCCC(=O)Nc1nccs1)S(=O)(=O)c1ccc(Cl)cc1 | 10.9
2 | Cc1ccc2nc(Nc3ccc(Cl)cc3)c3nncn3c2c1 | 13.4
3 | CN1CCC(NC(=O)Cc2c(F)cccc2Cl)CC1 | 8.76
4 | Cc1ccc(/C=C/C(=O)O)cc1S(=O)(=O)N(C)CCO | 1.66
5 | COC(=O)Nc1nc(-c2ccccc2)c(C(=O)c2ccccc2)s1 | 1.89
6 | CCN(CC)C(=S)NC(=O)c1ccc(OC)c(Br)c1 | 13.5
7 | CN(CC(=O)Nc1cccc(F)c1)C(=O)c1cc(S(=O)(=O)N2CCN(c3ccccc3)CC2)ccc1Cl | -0.495
8 | Nc1cc(=O)[nH]c(SCC(=O)Nc2ccccc2-c2ccccc2)n1 | 13.3
9 | CC(C)(C)c1ccc(C(=O)NNC(=O)c2cccc(Br)c2)cc1 | 11.5
10 | COc1ccc(C2CC(c3ccccc3C)n3nc(N)nc3N2)cc1 (stereo not shown) | 2.16
11 | C/C(=N\NC(=O)c1cc(-c2ccncc2)nc2ccccc12)c1ccc(OC(F)F)cc1 | -4.44
12 | Cc1cc(-c2nc(C)c(C(=O)NNS(=O)(=O)c3cccc(C(F)(F)F)c3)s2)no1 | 7.14
13 | O=C(/C=C/c1ccco1)Nc1cccc2cccnc12 | 7.94
14 | O=C(Nc1ccc(NC(=S)NC(=O)c2ccccc2F)cc1)c1cccs1 | 5.55
15 | CCCCCC(=O)Nc1ccc(-c2csc(N)n2)cc1 | 7.1
16 | Cc1c(Cl)ccc2sc(NC(=O)CN3C(=O)c4ccccc4C3=O)nc12 | 12.8
17 | CCC(Sc1nc2cc(OC)c(OC)cc2c(=O)n1Cc1ccc(OC)cc1)C(=O)NCCOC (stereo not shown) | -6.75
18 | Cc1cc(C)nc(SCC(=O)c2ccc(O)c(O)c2)n1 | 16
19 | COc1cccc(NC(=O)C(=O)c2cn(CC(=O)N3CCCC3)c3ccccc23)c1 | 12.6
20 | O=C1/C(=C/c2cc([N+](=O)[O-])ccc2Cl)N2CCC1CC2 | -3.92
21 | CCCCNC(=O)c1onc(CSc2ccncc2)c1C(=O)NCCCC | 14.1
22 | CCN(C(=O)CN(C)Cc1cccc(Cl)c1Cl)c1c(N)n(Cc2ccccc2)c(=O)[nH]c1=O | 6.57

Row | SMILES | hERG current change (%, negative = inhibition) at 1uM [%]
23 | CN1CCN(c2ccc(S(=O)(=O)N3CCCCC3)cc2NC(=O)c2cccc([N+](=O)[O-])c2)CC1 | -7.23
24 | CC1(C)Cc2c(c(=S)nc(-c3ccccc3)n2CCN2CCOCC2)CO1 | 6.74
25 | Cc1c(NC(=O)C(C)OC(=O)CC2Sc3ccccc3NC2=O)c(=O)n(-c2ccccc2)n1C (stereo not shown) | 14.4
26 | CC(=O)c1cccc(N(C(=O)Cn2nnc3ccccc32)C(C(=O)NC2CCCCC2)c2cn(C)nc2C)c1 (stereo not shown) | -0.0434
27 | N#CCc1ccc(NC(=O)c2cc(S(=O)(=O)N3CCOCC3)ccc2Cl)cc1 | 9.35
28 | CCNc1c(NC(=O)COc2ccc(Cl)cc2)c(=O)oc2ccccc12 | 3.75
29 | COc1ccc(N2C(=O)C3CCCN3C2c2cccc(C)c2)cc1 (stereo not shown) | 8.84
30 | CC(C)CCNC(=O)NC(=O)CSc1nnc(COc2ccccc2Cl)o1 | -4.56
31 | CCCNC(=O)CCc1c(C)nc2nc(-c3cc(OC)cc(OC)c3)nn2c1C | 6.87
32 | C=CC1CN(C(=O)OCC(Cl)(Cl)Cl)C2CC3c4ccc(OC)cc4NC3C3CC1C2CO3 (stereo not shown) | 4.62
33 | CCOc1cc(-c2noc(-c3cccnc3)n2)ccc1OC | 5.67
34 | CC(C)n1cc(CN2CCC(C(=O)Nc3cccc(-c4cscn4)c3)CC2)cn1 | 0.715
35 | CSc1ncccc1C(=O)N1CCN(C(=O)c2ccccc2)CC1 | 12.4
36 | CCCN1C(=O)N(C)C(N(O)C(=O)NC)C1(C)C (stereo not shown) | 8.06
37 | CCOCCCn1c(=N)c(C(N)=S)cc2c(=O)n3cccc(C)c3nc21 | -85.5
38 | CCOc1ccc(C(=O)CCN2CCCCC2)cc1 | 4.71
39 | O=C(NCc1ccco1)c1ccc(CS(=O)Cc2ccc(Cl)cc2)o1 (stereo not shown) | -0.6
40 | CN(C)CCOc1ccc(Cl)cc1C(C)(C)C.O=C(O)C(=O)O | 3.21
41 | O=C(CCSc1nnc(-c2ccncc2)o1)Nc1cccc(Cl)c1 | 1.61
42 | Cc1ccc(Nc2nc(N)c([N+](=O)[O-])c(NCCO)n2)cc1C | 4.68
43 | Cc1cccn2cc(CNC(=O)C3CCCCC3)nc12 | 9.27
44 | COc1ccc(/C(O)=C2\C(=O)C(=O)N(c3cc(C)on3)C2c2ccccc2OC)cc1C (stereo not shown) | 4.94

Row | SMILES | hERG current change (%, negative = inhibition) at 1uM [%]
45 | O=C(N=Nc1c(O)[nH]c(=O)[nH]c1=O)C1COc2ccccc2O1 (stereo not shown) | 6.77
46 | CC(NC(=O)/C=C/c1ccco1)c1nc2ccccc2n1Cc1cccc(Cl)c1 (stereo not shown) | -4.89
47 | O=C(c1ccccn1)C1CCCN(Cc2cn[nH]c2-c2cc3ccccc3o2)C1 (stereo not shown) | -23.5
48 | COc1ccc(CCNc2ccc(C(CC(N)=O)NC(=O)c3ccccc3)cc2[N+](=O)[O-])cc1 (stereo not shown) | 6.7
49 | O=C(NC(=O)c1ccccc1Cl)C(=O)Nc1ccc(Cl)cc1 | 10.5
50 | CCCn1nc(C(=O)OCC(=O)Nc2cccc(S(N)(=O)=O)c2)c2ccccc2c1=O | 10.7
51 | COc1ccc(/C=C/C(=O)NCc2cn(C)nc2C)cc1COc1ccc(Cl)cc1Br | 7.05
52 | CC(=O)N(CC1CCCO1)c1nnc(-c2ccccn2)s1 (stereo not shown) | -3.15
53 | CCOP(=O)(OCC)C(O)c1ccc(OC)cc1OC (stereo not shown) | 11.1
54 | Cc1sc2nc(SCC(=O)NCCOCCO)n(C)c(=O)c2c1C | 1.47
55 | COc1ccccc1N1C(=O)NC(=O)C2(Cc3cc(C)ccc3N(C)C2)C1=O (stereo not shown) | -11.9
56 | COC(CN1C(=O)C(O)=C(C(C)=O)C1c1ccccn1)OC (stereo not shown) | 4.34
57 | O=C(NCc1ccccn1)NC1CCCCC1 | 1.9
58 | CCCCCC(=O)Nc1ccc(S(=O)(=O)Nc2cc(OC)nc(OC)n2)cc1 | 7.33
59 | COC(=O)/C(=N/Nc1ccccc1C)N1CCCc2ccccc21 | 12.2
60 | O=C(Nc1nnc(Cc2ccccc2)s1)c1cccs1 | 3.73
61 | CCC(C)[C@H]1CNC(=S)N1CCc1cccc2ccccc12 (stereo partly shown) | 21.9
62 | CCN1CC2([N+](=O)[O-])CC=C(Cl)C([N+](=O)[O-])(C1)C2 (stereo not shown) | 12.5
63 | COc1cc(OC)cc(C(=O)N[C@H](C(=O)OCC(=O)c2ccc3c(c2)NC(=O)CO3)C(C)C)c1 | 17.5
64 | CCS(=O)(=O)N(CC(=O)Nc1cccc2ccccc12)c1ccc(OC)cc1 | 13.9
65 | Cc1ccc(NC(=O)C(C)N2CCN(C)CC2)cc1S(=O)(=O)N1CCOCC1 (stereo not shown) | 15.6
66 | O=C(O)CCC(=O)NNC(=O)COc1ccc2ccccc2c1Br | 11.4

Row | SMILES | hERG current change (%, negative = inhibition) at 1uM [%]
67 | CC(C)NC(=O)CC1Nc2c3ccccc3nc(=S)n2C1=O (stereo not shown) | 0.671
68 | CC1COc2ccccc2N1S(=O)(=O)c1ccccc1 (stereo not shown) | 16.2
69 | O=C1[C@@H]2Cc3c([nH]c4ccccc34)C(c3ccccc3)N2C(=O)CN1C1CCN(Cc2ccccc2)CC1 (stereo partly shown) | 13.1
70 | COC(=O)C(Cc1c[nH]c2ccccc12)NC(=O)c1cccc(S(=O)(=O)N2CCCCC2)c1 (stereo not shown) | 2.16
71 | COc1ccccc1C(=O)NCCC(=O)Nc1ccc(S(=O)(=O)N2C(C)CCCC2C)cc1 (stereo not shown) | 5.48
72 | Cc1cc2c(c(=O)o1)C1(C(=O)N(CC(=O)O)c3ccccc31)C(C#N)=C(N)O2 (stereo not shown) | 13.4
73 | COc1ccc(OC)c(/C=N/NC(=O)c2[nH]nc3c2CCc2ccccc2-3)c1 | 13.1
74 | CC(=O)Nc1ccc(S(=O)(=O)N2CCN(c3cc4c(cc3[N+](=O)[O-])n(C)c(=O)n4C)CC2)cc1 | 8.49
75 | O=C(c1cccnc1)N1CCN(c2ccc([N+](=O)[O-])cc2Cl)CC1 | -31.5
76 | Cc1ccccc1S(=O)(=O)Cc1ccc(C(=O)NCCCN2CCCC(C)C2)o1 (stereo not shown) | 4.68
77 | CC(=O)c1ccc(NC(=S)N2CCN(S(=O)(=O)c3ccc(F)cc3)CC2)cc1 | -0.871
78 | CCOC(=O)C(NC(C)=O)(Nc1ccc(S(=O)(=O)Nc2onc(C)c2C)cc1)C(F)(F)F (stereo not shown) | 15.8
79 | Cc1ccc(C)c(OC(C)C(=O)Nc2ccc(S(=O)(=O)Nc3nccs3)cc2)c1 (stereo not shown) | 2.83
80 | CCCc1nnc(NC(=O)CCC(=O)Nc2ccc(F)cc2)s1 | 14.3
81 | Cc1ccc(OCC(=O)Oc2cccc(C)c2C)cc1 | 11.6
82 | CCCN(CC(=O)Nc1ccc(F)c(F)c1F)C(=O)C1CC(=O)N(Cc2ccccc2)C1 (stereo not shown) | 0.966
83 | COCCCNc1ncnc2nc[nH]c12 | 12
84 | CCCc1cc(=O)[nH]c2nnc(SCC(=O)Nc3cccc(NC(C)=O)c3)n12 | 17.3
85 | Cc1ccc(S(=O)(=O)N(CC(=O)Nc2ccc(F)cc2)C(=O)N2CCN(C)CC2)cc1 | 15.6

From PMC4336329 (PLoS ONE, 2015)
